IC50 is the fitted dose that halves viability relative to control wells, and lower means more sensitive; a fit beyond the top or the lowest dose is shown as a bound at that dose. For AUC the same curve is integrated over the 256-fold range of doses and scaled to a fraction; the more sensitive the line, the further below 1. For part of these data: A top dose marked as inferred was derived from the fitted curves, not read from the paper.
Tests used:
Assay in all cases: Viability of human cancer cell lines after 72 h of drug (GDSC screen)
Phenformin = compound: N=C(N)NC(=N)NCCc1ccccc1 [Phenformin]; conditions: top dose 4000 µM; top dose inferred
Protocol: (§1)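 Human cancer cell lines in 384-well plates, medium with 10% serum, drug for 72 h over a 256-fold dose range (nine 2-fold or five 4-fold steps up to the top dose). Adherent lines were fixed and stained with the nucleic acid dye Syto60, suspension lines read with resazurin; signal relative to control wells, capped at 0 and 100%. One two-parameter sigmoid per drug and line, fitted in a mixed model over all curves with the slope shared within a line.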

EHT 1864 = compound: O=c1cc(CN2CCOCC2)occ1OCCCCCSc1ccnc2cc(C(F)(F)F)ccc12 [EHT 1864]; conditions: top dose 10 µM; top dose inferred
Protocol: as §1

AG-014699 = compound: CNCc1ccc(-c2[nH]c3cc(F)cc4c3c2CCNC4=O)cc1 [AG-014699]; conditions: top dose 5 µM; top dose inferred
Protocol: as §1

QL-XI-92 = compound: C=CC(=O)Nc1cc(NC(=O)c2ccc(C)c(NC(=O)c3ccno3)c2)cc(C(F)(F)F)c1 [QL-XI-92]; conditions: top dose 10.24 µM; top dose inferred
Protocol: as §1

Gefitinib = compound: COc1cc2ncnc(Nc3ccc(F)c(Cl)c3)c2cc1OCCCN1CCOCC1 [Gefitinib]; conditions: top dose 0.5 µM
Protocol: as §1

Vinorelbine = compound: CCC1=C[C@@H]2CN(C1)Cc1c([nH]c3ccccc13)[C@@](C(=O)OC)(c1cc3c(cc1OC)N(C)[C@H]1[C@@](O)(C(=O)OC)[C@H](OC(C)=O)[C@]4(CC)C=CCN5CC[C@]31[C@@H]54)C2 [Vinorelbine]; conditions: top dose 0.064 µM; top dose inferred
Protocol: as §1

XL-184 = compound: COc1cc2nccc(Oc3ccc(NC(=O)C4(C(=O)Nc5ccc(F)cc5)CC4)cc3)c2cc1OC [XL-184]; conditions: top dose 5.12 µM; top dose inferred
Protocol: as §1

NU-7441 = compound: O=c1cc(N2CCOCC2)oc2c(-c3cccc4c3sc3ccccc34)cccc12 [NU-7441]; conditions: top dose 2 µM; top dose inferred
Protocol: as §1

WHI-P97 = compound: COc1cc2ncnc(Nc3cc(Br)c(O)c(Br)c3)c2cc1OC [WHI-P97]; conditions: top dose 10.24 µM; top dose inferred
Protocol: as §1

Cell Line | AUC (Phenformin) | IC50 (Phenformin) [mM] | AUC (EHT 1864) | IC50 (EHT 1864) [µM] | AUC (AG-014699) | IC50 (AG-014699) [µM] | AUC (QL-XI-92) | IC50 (QL-XI-92) [µM] | AUC (Gefitinib) | IC50 (Gefitinib) [nM] | AUC (Vinorelbine) | IC50 (Vinorelbine) [nM] | AUC (XL-184) | IC50 (XL-184) [µM] | AUC (NU-7441) | IC50 (NU-7441) [nM] | AUC (WHI-P97) | IC50 (WHI-P97) [µM]
H2373 (mesothelioma, adherent) | 0.936 | > 4 | 0.983 | > 10 | 0.983 | > 5 | 0.936 | > 10.2 | 0.981 | > 500 | 0.855 | > 64 | 0.921 | > 5.12 | 0.946 | > 2000 | 0.978 | > 10.2
H2461 (mesothelioma, adherent) | 0.965 | > 4 | 0.982 | > 10 | 0.955 | > 5 | 0.983 | > 10.2 | 0.983 | > 500 | 0.951 | > 64 | 0.983 | > 5.12 | 0.983 | > 2000 | 0.981 | > 10.2
H2595 (mesothelioma, adherent) | 0.929 | > 4 | 0.914 | > 10 | 0.98 | > 5 | 0.94 | > 10.2 | 0.972 | > 500 | 0.736 | 25.1 | 0.95 | > 5.12 | 0.966 | > 2000 | 0.97 | > 10.2
H2731 (mesothelioma, adherent) | 0.984 | > 4 | 0.936 | > 10 | 0.984 | > 5 | 0.879 | > 10.2 | 0.984 | > 500 | 0.914 | > 64 | 0.717 | 1.45 | 0.98 | > 2000 | 0.879 | > 10.2
H2795 (mesothelioma, adherent) | 0.895 | > 4 | 0.909 | > 10 | 0.982 | > 5 | 0.884 | > 10.2 | 0.963 | > 500 | 0.893 | > 64 | 0.876 | 4.94 | 0.957 | > 2000 | 0.903 | > 10.2
H2869 (mesothelioma, adherent) | 0.977 | > 4 | 0.956 | > 10 | 0.984 | > 5 | 0.92 | > 10.2 | 0.984 | > 500 | 0.634 | 10.3 | 0.884 | > 5.12 | 0.974 | > 2000 | 0.983 | > 10.2
H3118 (head and neck, adherent) | 0.769 | 1.65 | 0.862 | 9.94 | 0.955 | > 5 | 0.974 | > 10.2 | 0.504 | 32.2 | 0.504 | 4.11 | 0.89 | > 5.12 | 0.957 | > 2000 | 0.83 | 7.24
HARA (lung squamous cell carcinoma, adherent) | 0.812 | 2.6 | 0.916 | > 10 | 0.919 | > 5 | 0.948 | > 10.2 | 0.727 | 156 | 0.635 | 10.1 | 0.924 | > 5.12 | 0.959 | > 2000 | 0.933 | > 10.2
HCC38 (breast, adherent) | 0.72 | 1.11 | 0.972 | > 10 | 0.978 | > 5 | 0.98 | > 10.2 | 0.976 | > 500 | 0.542 | 5.25 | 0.941 | > 5.12 | 0.978 | > 2000 | 0.913 | > 10.2
HCC1143 (breast, adherent) | 0.65 | 0.772 | 0.969 | > 10 | 0.971 | > 5 | 0.958 | > 10.2 | 0.932 | > 500 | 0.888 | > 64 | 0.807 | 4.03 | 0.955 | > 2000 | 0.879 | > 10.2
HCC1395 (breast, adherent) | 0.83 | 3.25 | 0.964 | > 10 | 0.98 | > 5 | 0.967 | > 10.2 | 0.985 | > 500 | 0.579 | 6.87 | 0.958 | > 5.12 | 0.956 | > 2000 | 0.978 | > 10.2
HCC1419 (breast, adherent) | 0.763 | 2.05 | 0.862 | > 10 | 0.982 | > 5 | 0.964 | > 10.2 | 0.96 | > 500 | 0.848 | > 64 | 0.982 | > 5.12 | 0.981 | > 2000 | 0.958 | > 10.2
HCC1428 (breast, adherent) | 0.943 | > 4 | 0.981 | > 10 | 0.986 | > 5 | 0.974 | > 10.2 | 0.98 | > 500 | 0.933 | > 64 | 0.987 | > 5.12 | 0.967 | > 2000 | 0.981 | > 10.2
HCC1569 (breast, adherent) | 0.943 | > 4 | 0.915 | > 10 | 0.916 | > 5 | 0.921 | > 10.2 | 0.979 | > 500 | 0.551 | 5.79 | 0.969 | > 5.12 | 0.97 | > 2000 | 0.953 | > 10.2
HCC1937 (breast, adherent) | 0.856 | > 4 | 0.948 | > 10 | 0.96 | > 5 | 0.951 | > 10.2 | 0.967 | > 500 | 0.882 | > 64 | 0.973 | > 5.12 | 0.975 | > 2000 | 0.919 | > 10.2

— the supplement of paper PMC4967469
